Out of some 360,000 compounds screened, about 16,000 (4.4%) were called active. Inconclusive results, whose numbers are uncertain, are shown with a selection of clear calls. Calls follow the shape of the dose curve; as a rule, active = well fitted inhibition curve with a large enough effect; inconclusive = small, poorly fitted or top-dose-only effect; inactive = no such curve, though single readings can be large or run the other way. A potency beside an inconclusive call is a rough fit, not a confirmed value.
biological target: Bromodomain adjacent to zinc finger domain protein 2B (Homo sapiens) (UniProt Q9UIF8); test: qHTS Assay for Inhibitors of BAZ2B; conditions: AlphaScreen BAZ2B-H3K14Ac peptide displacement; activity change, negative = inhibition: at 114 µM (top of the series) unless noted; also: nearly all actives have a fitted effect of over 60% in size
UniProt Q9UIF8, sequence (Q9UIF8 whole entry, looked up, the tested form may be a part): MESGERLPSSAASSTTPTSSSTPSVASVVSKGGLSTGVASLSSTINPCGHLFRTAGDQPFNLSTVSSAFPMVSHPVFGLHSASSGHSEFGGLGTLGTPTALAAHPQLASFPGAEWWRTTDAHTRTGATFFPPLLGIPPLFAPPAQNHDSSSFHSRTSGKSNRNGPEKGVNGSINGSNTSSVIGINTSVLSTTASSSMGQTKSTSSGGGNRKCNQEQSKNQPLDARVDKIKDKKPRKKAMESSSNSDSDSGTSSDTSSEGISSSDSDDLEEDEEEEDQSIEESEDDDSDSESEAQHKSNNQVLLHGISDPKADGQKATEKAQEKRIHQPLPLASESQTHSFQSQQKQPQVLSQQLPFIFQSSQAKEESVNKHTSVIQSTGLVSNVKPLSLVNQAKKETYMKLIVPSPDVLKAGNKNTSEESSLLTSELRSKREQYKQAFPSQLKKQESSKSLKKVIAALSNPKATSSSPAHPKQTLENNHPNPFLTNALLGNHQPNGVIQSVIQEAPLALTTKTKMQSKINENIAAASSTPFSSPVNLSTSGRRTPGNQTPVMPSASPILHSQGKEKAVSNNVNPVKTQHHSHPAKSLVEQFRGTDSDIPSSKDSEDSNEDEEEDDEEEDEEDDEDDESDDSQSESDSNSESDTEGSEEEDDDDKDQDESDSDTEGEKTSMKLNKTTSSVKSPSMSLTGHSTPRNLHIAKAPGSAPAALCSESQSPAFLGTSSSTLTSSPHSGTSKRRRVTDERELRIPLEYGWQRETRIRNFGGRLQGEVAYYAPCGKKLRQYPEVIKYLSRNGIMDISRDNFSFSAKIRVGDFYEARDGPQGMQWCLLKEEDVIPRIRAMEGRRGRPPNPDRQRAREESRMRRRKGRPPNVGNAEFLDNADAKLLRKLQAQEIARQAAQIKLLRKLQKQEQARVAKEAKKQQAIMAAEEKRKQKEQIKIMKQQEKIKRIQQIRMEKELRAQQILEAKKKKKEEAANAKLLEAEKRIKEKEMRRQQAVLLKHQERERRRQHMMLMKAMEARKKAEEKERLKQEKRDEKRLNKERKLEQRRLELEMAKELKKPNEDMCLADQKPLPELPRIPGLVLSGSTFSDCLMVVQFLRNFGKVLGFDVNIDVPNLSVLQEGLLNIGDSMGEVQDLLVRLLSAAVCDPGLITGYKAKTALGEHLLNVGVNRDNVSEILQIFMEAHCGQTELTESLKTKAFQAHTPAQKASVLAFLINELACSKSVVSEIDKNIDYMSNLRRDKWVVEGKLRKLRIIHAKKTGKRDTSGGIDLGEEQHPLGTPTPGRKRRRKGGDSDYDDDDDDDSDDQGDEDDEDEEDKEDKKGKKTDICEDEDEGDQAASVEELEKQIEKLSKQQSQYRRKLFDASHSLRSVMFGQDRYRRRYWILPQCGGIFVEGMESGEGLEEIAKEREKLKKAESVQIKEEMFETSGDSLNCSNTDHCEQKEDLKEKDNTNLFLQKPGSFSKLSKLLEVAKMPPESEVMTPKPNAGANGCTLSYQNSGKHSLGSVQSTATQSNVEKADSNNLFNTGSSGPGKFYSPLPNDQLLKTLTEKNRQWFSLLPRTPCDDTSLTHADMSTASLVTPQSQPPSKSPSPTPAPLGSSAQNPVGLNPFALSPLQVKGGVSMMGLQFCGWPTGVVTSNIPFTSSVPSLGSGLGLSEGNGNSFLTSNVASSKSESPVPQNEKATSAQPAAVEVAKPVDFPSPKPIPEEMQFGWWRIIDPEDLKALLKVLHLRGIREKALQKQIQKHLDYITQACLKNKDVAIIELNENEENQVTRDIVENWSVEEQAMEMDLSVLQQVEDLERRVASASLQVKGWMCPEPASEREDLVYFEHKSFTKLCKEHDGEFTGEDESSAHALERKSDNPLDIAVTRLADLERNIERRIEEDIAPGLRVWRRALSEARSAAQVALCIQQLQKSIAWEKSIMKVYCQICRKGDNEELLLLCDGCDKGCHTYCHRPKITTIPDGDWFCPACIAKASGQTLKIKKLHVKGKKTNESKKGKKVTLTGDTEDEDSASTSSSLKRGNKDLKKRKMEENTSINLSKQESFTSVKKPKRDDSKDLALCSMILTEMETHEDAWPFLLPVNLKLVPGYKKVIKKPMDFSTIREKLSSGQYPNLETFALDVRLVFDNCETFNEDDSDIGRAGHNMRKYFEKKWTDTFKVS
Method in brief: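 Inhibition is scored as reduced AlphaScreen emission. The BAZ2B/b-H3(5-23)K14Ac complex (50 nM each) in PBS pH 7.4, 0.01% Tween-20 meets compound (up to 110 uM) for 30 min at RT before bead addition.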
% is scaled to controls: 0 for no effect and ±100 for the full control effect; potency is read from the fitted curve at half-maximal effect; tags tell the direction and shape of the fitted curve.

Structure (SMILES)	Potency	activity change, negative = inhibition
CC(Nc1cc(N2CCOCC2)ccc1[N+](=O)[O-])c1ccccc1 (stereo not given)	inconclusive: 20 µM [inhibitor, full curve]	–
N#C/C(=C\c1cccs1)C(=O)c1ccccc1Cl	inconclusive: 44.7 µM [inhibitor, partial curve]	–
COc1ccc(Br)cc1/C=C/c1ccc2cccc(O)c2n1	inconclusive: 28.2 µM [inhibitor, single point]	–
CC(C)CC(=O)NC1(C(F)(F)F)C(=O)Nc2c1c(=O)[nH]c(=O)n2Cc1ccco1 (stereo not given)	inconclusive: 89.1 µM [inhibitor, single point]	–
COc1ccc(/C=C/CN2CCC(Oc3ccc(C(=O)N4CCCCC4)cc3)CC2)cc1	inconclusive: 79.4 µM [inhibitor, single point]	–
COc1ccc(N2CCN(C(=O)CCC(=O)N3CCOc4ccc(Cl)cc43)CC2)cc1	inconclusive: 44.7 µM [inhibitor, partial curve]	–
Clc1ccc2c(c1)C1=C(C(c3ccncc3)O2)C(c2ccc(Br)cc2)n2ncnc2N1 (stereo not given)	inconclusive: 39.8 µM [inhibitor, full curve, poor fit]	–
Cc1noc(C(=O)Nc2c(C)n(C)n(-c3ccccc3)c2=O)c1Cl	–	inactive: 0.452%
Clc1ccc(-c2cc3ncc4c(n3n2)-c2ccccc2OC4)cc1	–	inactive: -3.76%
Cc1cc(Nc2ccc3ccccc3c2)n2ncnc2n1	–	inactive: -32.8%
Cc1ccc(CN2CCCn3nc(C(=O)NCc4ccc(N(C)C)cc4)cc3C2=O)cc1	inconclusive: 50.1 µM [inhibitor, partial curve]	–
CC/C(=C\C(=O)c1ccncc1)Nc1ccc(Br)cc1	active: 50.1 µM	–
CCCCNC(=O)Cc1coc2ccc3ccccc3c12	inconclusive: 79.4 µM [inhibitor, single point]	–
O=C(CN1C(=O)c2ccccc2S1(=O)=O)c1ccc(O)c(O)c1	inconclusive: 79.4 µM [inhibitor, single point]	–
O=C(OCc1cc(=O)n2nc(-c3cccs3)sc2n1)c1cccc(F)c1	inconclusive: 50.1 µM [inhibitor, partial curve]	–
CC(C)CCN(C(=O)Nc1ccc(Cl)c(Cl)c1)C1CCN(C(C)C)CC1	–	inactive: 1.47%
Oc1ccc(Cn2ccnc2)c2cccnc12	active: 0.708 µM	–
Cc1ccc(NC(=O)[C@@H](NC(=O)c2cccc(S(=O)(=O)N3CCOCC3)c2)C(C)C)cc1C	–	inactive: 10.2%
COc1ccc(C(O)c2nccn2Cc2ccccc2)cc1 (stereo not given)	inconclusive: 89.1 µM [inhibitor, single point]	–
Cc1cccc(NC(=O)CSc2ccc(-c3sc(-c4ccccc4)nc3C)nn2)c1C	–	inactive: -14.3%
